Measurements taken from paper PMC4336329 (PLoS ONE, 2015).
Out of some 310,000 compounds screened, about 2,200 (0.71%) showed an effect of 50% or more. Effects have a minus sign here. Some of the results follow.

target: human ether-à-go-go-related gene (hERG) potassium channel (human, UniProt Q12809); test: primary screen, population patch clamp on CHO cells stably expressing hERG
Sequence (Q12809 whole entry, looked up): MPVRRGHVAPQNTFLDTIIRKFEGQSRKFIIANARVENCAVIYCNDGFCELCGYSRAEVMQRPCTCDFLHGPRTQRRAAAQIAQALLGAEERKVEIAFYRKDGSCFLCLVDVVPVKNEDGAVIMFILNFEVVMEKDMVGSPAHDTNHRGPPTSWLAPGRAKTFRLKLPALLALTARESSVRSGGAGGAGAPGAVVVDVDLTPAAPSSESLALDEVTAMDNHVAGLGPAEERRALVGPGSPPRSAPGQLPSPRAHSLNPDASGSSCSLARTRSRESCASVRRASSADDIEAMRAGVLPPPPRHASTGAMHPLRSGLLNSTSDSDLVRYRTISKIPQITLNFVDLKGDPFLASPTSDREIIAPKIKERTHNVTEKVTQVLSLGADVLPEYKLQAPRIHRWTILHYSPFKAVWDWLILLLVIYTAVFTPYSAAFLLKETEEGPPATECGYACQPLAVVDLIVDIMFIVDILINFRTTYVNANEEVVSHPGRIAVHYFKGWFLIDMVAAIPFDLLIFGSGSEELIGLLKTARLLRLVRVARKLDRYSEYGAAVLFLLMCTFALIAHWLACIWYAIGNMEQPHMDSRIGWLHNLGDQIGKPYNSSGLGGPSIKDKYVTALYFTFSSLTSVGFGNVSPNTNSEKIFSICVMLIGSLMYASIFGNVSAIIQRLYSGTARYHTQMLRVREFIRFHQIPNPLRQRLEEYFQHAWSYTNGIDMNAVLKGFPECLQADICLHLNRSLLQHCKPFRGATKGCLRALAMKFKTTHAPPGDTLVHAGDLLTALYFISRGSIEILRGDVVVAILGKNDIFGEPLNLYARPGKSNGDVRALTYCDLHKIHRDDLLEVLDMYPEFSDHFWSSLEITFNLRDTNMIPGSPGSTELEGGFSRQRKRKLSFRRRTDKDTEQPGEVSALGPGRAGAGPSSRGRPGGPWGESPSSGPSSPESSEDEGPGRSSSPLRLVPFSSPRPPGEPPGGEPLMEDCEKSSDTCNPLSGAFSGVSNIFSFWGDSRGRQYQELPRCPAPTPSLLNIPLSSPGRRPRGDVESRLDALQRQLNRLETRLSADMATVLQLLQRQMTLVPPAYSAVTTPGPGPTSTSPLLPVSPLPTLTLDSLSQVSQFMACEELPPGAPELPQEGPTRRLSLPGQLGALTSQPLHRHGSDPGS

First: Cc1c(Cl)cccc1NC(=O)Cc1ccc([N+](=O)[O-])cc1
Second: CC1(c2ccccc2Cl)NC(=O)N(CC(=O)NCc2ccc3c(c2)OCO3)C1=O (centres unmarked)
The “hERG current change (%, negative = inhibition) at 1uM” value of the first is lower: 11.4% for the first, 14% for the second.

Compared with `COc1cc(NC(=S)N2CCN(C)CC2)cc(OC)c1`, `COc1ccc(C2CCCN2C(=O)Nc2ccc(C)c(C)c2)cc1OC` (centres unmarked) is lower in “hERG current change (%, negative = inhibition) at 1uM” value: 14.3% for the first, 2.78% for the second.

First: COC(=O)CCC(=O)c1oc2ccccc2c1N
Second: CC(C)(C)c1ccc(C(=O)CCC(=O)NCc2ccccc2)cc1
The “hERG current change (%, negative = inhibition) at 1uM” value of the first is higher: -0.856% for the first, -1.75% for the second.

Going from `CCOc1cc(CNC2CCCC2)cc(Cl)c1OCc1ccccc1.Cl` to `COc1ccc(S(=O)(=O)N2CCC(C(=O)NCCCc3ccccc3)CC2)cc1`, the “hERG current change (%, negative = inhibition) at 1uM” value falls from 8.95% to 7.18%.

Compared with `COc1ccc(-c2csc3ncnc(N4CCN(C(=O)c5ccco5)CC4)c23)cc1`, `O=C(c1ccc(-n2cncn2)c([N+](=O)[O-])c1)N1CCN(S(=O)(=O)c2ccc(Cl)cc2)CC1` is lower in “hERG current change (%, negative = inhibition) at 1uM” value: -12.1% for the first, -29.5% for the second.

Going from `Cc1nc2nc(SCC(=O)C(C)(C)C)[nH]c2cc1Br` to `CCOC(=O)CNC(=O)CSc1nnnn1-c1ccc(C)c(C)c1`, the “hERG current change (%, negative = inhibition) at 1uM” value falls from 5.97% to 0.993%.

Going from `COc1ccc(OC)c(C(=O)c2coc3ccc(OCC(=O)O)cc23)c1` to `COc1cc(C(=O)OCC(=O)Nc2cc(C)on2)ccc1OCc1ccccc1Cl`, the “hERG current change (%, negative = inhibition) at 1uM” value rises from 8.49% to 9.21%.

Compared with `CCC(Sc1nnnn1-c1ccccc1)C(=O)Nc1nc2ccccc2s1` (centres unmarked), `O=C(CN1C(=O)C(=O)c2ccccc21)c1ccccc1` is higher in “hERG current change (%, negative = inhibition) at 1uM” value: -5.12% for the first, 10.8% for the second.

Going from `COc1ccc(CNC(=O)c2ccc(CS(=O)c3ccccc3)o2)cc1` (centres unmarked) to `COc1ccc(CNC(=O)CCc2ccc(S(=O)(=O)N3CCCCCC3)cc2)cc1`, the “hERG current change (%, negative = inhibition) at 1uM” value falls from 10.4% to -3.54%.

First: CCc1nnc(SCc2ccc(OC(C)C)cc2)n1N
Second: CCCc1nc2sc3ccccc3c(=O)c2c(=O)n1Cc1ccc(OC)cc1
The “hERG current change (%, negative = inhibition) at 1uM” value of the first is higher: 12.3% for the first, 8.29% for the second.

Going from `CCOC(=O)C1=C(CC)Nc2ccccc2N=C1NC(=O)CCN1C(=O)C2CCCCC2C1=O` (centres unmarked) to `CCOC(=O)CSC1=N/C(=C/c2ccc(-n3cncn3)cc2)C(=O)N1C(C)=O`, the “hERG current change (%, negative = inhibition) at 1uM” value falls from 10.8% to 3.15%.

First: Cc1ccc2c(C)c(C(=O)Nc3ccc(S(N)(=O)=O)cc3)oc2c1C
Second: Cc1ccc(NC(=O)C(=O)NCCc2c[nH]c3ccccc23)c(C)c1
The “hERG current change (%, negative = inhibition) at 1uM” value of the first is higher: 19.2% for the first, 4.11% for the second.

Compared with `Cc1ccc(-n2c(O)c(C=NC3CCS(=O)(=O)C3)c3ccccc3c2=O)c(C)c1` (centres unmarked), `COCCn1c(-c2ccccc2Cl)nc2c(c(=O)c3ccccc3n2C)c1=O` is lower in “hERG current change (%, negative = inhibition) at 1uM” value: 9.94% for the first, 8.71% for the second.

Going from `COc1ccc(OC)c(NC(=O)CSC2=NN3CCCC(=O)N=C3S2)c1` to `COc1ccc(C2c3[nH]c4ccccc4c3CCN2CCCn2cccn2)cc1C` (centres unmarked), the “hERG current change (%, negative = inhibition) at 1uM” value falls from 3.3% to -2.09%.

Going from `COc1cc(/C=C/[N+](=O)[O-])ccc1O` to `Cn1c(N)c(C(=O)COC(=O)/C=C/c2cccc(F)c2)c(=O)n(C)c1=O`, the “hERG current change (%, negative = inhibition) at 1uM” value falls from 9.94% to -3.8%.

Compared with `CCNC(=O)c1ccc(-n2nc(C(F)(F)F)c3c2CCCC3)cc1`, `CCCCOC(=O)Nc1ccc(C(=O)OC)cc1` is higher in “hERG current change (%, negative = inhibition) at 1uM” value: 5.17% for the first, 15.2% for the second.

Going from `CCC(C(=O)NCc1ccc(F)cc1)N(Cc1cccs1)C(=O)c1snc(C(N)=O)c1N` (centres unmarked) to `CCOCCCNC(=O)C(c1ccc(OC)cc1)N(Cc1cccs1)C(=O)c1ccccn1` (centres unmarked), the “hERG current change (%, negative = inhibition) at 1uM” value rises from -1.93% to 3.99%.

Compared with `CCNc1nc(N)c(C(=O)C23CC4CC(CC(C4)C2)C3)s1`, `COCc1[nH]nc2c1C1(CCC3(CC1)OCCO3)C(C#N)=C(N)O2` is lower in “hERG current change (%, negative = inhibition) at 1uM” value: 11% for the first, -17.6% for the second.

Compared with `Cc1ccc(S(=O)(=O)N2CCN(CC(=O)N(CC(C)C)c3c(N)n(CC(C)C)c(=O)[nH]c3=O)CC2)c(C)c1`, `CCN(CC)S(=O)(=O)c1ccc2c(c1)c(=O)c(C(=O)NCCOC)cn2C` is lower in “hERG current change (%, negative = inhibition) at 1uM” value: 11% for the first, -6.38% for the second.

First: CC(=O)c1ccc(NC(=O)CNCc2cccs2)cc1.O=C(O)C(=O)O
Second: N/C(=N\OC(=O)COc1ccc2ccccc2c1Br)c1ccncc1
The “hERG current change (%, negative = inhibition) at 1uM” value of the first is higher: 10.5% for the first, 8.36% for the second.

First: C=CCn1c(/N=C/c2ccc(N(C)C)cc2)nc2ccccc21
Second: CC(C)N1CN(c2ccccc2)C(=S)N(c2ccccc2)C1
The “hERG current change (%, negative = inhibition) at 1uM” value of the first is lower: 1.61% for the first, 9.09% for the second.

Going from `CCCCC(O)(CCCC)C(=O)NNc1ccccc1` to `O=C(NCCO)C(O)C(O)C(=O)NCCO` (centres unmarked), the “hERG current change (%, negative = inhibition) at 1uM” value falls from 11.5% to 10.4%.
